The record followed here is article PMC3605390, “Characterisation of ATP-Dependent Mur Ligases Involved in the Biogenesis of Cell Wall Peptidoglycan in Mycobacterium tuberculosis” (PLoS ONE, 2013).

T1: MurF synthetase (Rv2157c) of Mycobacterium tuberculosis, M-PFC fusion (Mycobacterium tuberculosis H37Rv) (UniProt P9WJL1)
T1 sequence: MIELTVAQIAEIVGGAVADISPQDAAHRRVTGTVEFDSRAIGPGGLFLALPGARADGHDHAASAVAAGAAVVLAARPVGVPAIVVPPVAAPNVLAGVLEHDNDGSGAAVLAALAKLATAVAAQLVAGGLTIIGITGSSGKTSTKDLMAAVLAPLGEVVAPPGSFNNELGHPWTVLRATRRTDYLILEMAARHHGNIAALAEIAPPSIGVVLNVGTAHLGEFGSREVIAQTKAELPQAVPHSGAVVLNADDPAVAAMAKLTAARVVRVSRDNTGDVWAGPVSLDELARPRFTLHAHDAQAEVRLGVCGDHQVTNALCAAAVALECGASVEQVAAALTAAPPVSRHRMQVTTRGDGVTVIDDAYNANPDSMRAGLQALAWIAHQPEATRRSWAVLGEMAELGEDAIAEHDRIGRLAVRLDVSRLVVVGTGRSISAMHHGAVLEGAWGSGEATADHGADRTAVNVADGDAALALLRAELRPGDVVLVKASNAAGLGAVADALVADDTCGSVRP

T2: MurE synthetase (Rv2158c) of Mycobacterium tuberculosis, M-PFC fusion (Mycobacterium tuberculosis H37Rv) (UniProt P9WJL3)
T2 sequence: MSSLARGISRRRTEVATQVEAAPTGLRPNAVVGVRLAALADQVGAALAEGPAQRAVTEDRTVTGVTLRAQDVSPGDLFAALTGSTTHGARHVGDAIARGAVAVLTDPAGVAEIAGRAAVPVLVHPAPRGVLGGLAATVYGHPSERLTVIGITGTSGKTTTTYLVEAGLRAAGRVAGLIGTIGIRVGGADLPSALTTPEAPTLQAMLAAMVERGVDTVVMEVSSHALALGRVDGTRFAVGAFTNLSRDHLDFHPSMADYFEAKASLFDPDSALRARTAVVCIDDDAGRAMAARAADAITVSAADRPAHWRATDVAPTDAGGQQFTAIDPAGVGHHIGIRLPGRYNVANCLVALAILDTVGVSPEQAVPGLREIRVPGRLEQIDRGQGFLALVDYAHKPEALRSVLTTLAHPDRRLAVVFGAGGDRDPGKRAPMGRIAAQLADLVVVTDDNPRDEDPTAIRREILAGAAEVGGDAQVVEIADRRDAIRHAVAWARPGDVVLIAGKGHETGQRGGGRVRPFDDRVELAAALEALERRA

T3: MurC synthetase (Rv2152c) of Mycobacterium tuberculosis, M-PFC fusion (Mycobacterium tuberculosis H37Rv) (UniProt P9WJL7)
T3 sequence: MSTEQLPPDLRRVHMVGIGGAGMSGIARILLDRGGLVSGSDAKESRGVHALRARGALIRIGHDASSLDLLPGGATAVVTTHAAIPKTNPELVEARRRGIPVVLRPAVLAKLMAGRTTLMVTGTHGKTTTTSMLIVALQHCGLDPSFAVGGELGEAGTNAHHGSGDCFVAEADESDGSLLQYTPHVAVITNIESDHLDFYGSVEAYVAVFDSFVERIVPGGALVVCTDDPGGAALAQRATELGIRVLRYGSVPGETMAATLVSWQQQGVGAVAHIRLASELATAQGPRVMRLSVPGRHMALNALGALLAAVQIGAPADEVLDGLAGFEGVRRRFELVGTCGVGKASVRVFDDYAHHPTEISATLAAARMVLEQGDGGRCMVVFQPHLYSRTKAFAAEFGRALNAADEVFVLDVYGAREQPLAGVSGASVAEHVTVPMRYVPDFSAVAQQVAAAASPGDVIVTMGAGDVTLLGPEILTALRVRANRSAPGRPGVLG

T4: MurD synthetase (Rv2155c) of Mycobacterium tuberculosis, M-PFC fusion (Mycobacterium tuberculosis H37Rv) (UniProt P9WJL5)
T4 sequence: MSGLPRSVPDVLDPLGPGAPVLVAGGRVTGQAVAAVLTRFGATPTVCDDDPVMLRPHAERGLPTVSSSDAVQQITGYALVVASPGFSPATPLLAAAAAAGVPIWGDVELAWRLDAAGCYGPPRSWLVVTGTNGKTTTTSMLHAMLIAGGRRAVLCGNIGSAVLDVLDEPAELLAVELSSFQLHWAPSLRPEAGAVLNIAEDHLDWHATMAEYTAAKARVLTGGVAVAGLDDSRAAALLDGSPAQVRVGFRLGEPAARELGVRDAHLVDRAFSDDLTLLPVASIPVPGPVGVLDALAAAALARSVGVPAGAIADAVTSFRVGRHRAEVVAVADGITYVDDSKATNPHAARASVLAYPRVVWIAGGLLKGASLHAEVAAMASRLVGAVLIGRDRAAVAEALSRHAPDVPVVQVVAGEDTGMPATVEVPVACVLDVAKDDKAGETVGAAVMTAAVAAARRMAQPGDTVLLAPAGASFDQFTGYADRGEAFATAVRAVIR

B1: Ser/Thr protein kinase PknA (Rv0015c) of Mycobacterium tuberculosis, M-PFC fusion (enzyme, UniProt P9WI83 1-431)
chain: MSPRVGVTLSGRYRLQRLIATGGMGQVWEAVDNRLGRRVAVKVLKSEFSSDPEFIERFRAEARTTAMLNHPGIASVHDYGESQMNGEGRTAYLVMELVNGEPLNSVLKRTGRLSLRHALDMLEQTGRALQIAHAAGLVHRDVKPGNILITPTGQVKITDFGIAKAVDAAPVTQTGMVMGTAQYIAPEQALGHDASPASDVYSLGVVGYEAVSGKRPFAGDGALTVAMKHIKEPPPPLPPDLPPNVRELIEITLVKNPAMRYRSGGPFADAVAAVRAGRRPPRPSQTPPPGRAAPAAIPSGTTARVAANSAGRTAASRRSRPATGGHRPPRRTFSSGQRALLWAAGVLGALAIIIAVLLVIKAPGDNSPQQAPTPTVTTTGNPPASNTGGTDASPRLNWTERGETRHSGLQSWVVPPTPHSRASLARYEIAQ
B2: glutamate racemase (MurI, Rv1338) of Mycobacterium tuberculosis, M-PFC fusion (enzyme, UniProt P9WPW9 1-271)
chain: MNSPLAPVGVFDSGVGGLTVARAIIDQLPDEDIVYVGDTGNGPYGPLTIPEIRAHALAIGDDLVGRGVKALVIACNSASSACLRDARERYQVPVVEVILPAVRRAVAATRNGRIGVIGTRATITSHAYQDAFAAARDTEITAVACPRFVDFVERGVTSGRQVLGLAQGYLEPLQRAEVDTLVLGCTHYPLLSGLIQLAMGENVTLVSSAEETAKEVVRVLTEIDLLRPHDAPPATRIFEATGDPEAFTKLAARFLGPVLGGVQPVHPSRIH
B3: Ser/Thr protein kinase PknB (Rv0014c) of Mycobacterium tuberculosis, M-PFC fusion (enzyme, UniProt P9WI81 1-626)
chain: MTTPSHLSDRYELGEILGFGGMSEVHLARDLRLHRDVAVKVLRADLARDPSFYLRFRREAQNAAALNHPAIVAVYDTGEAETPAGPLPYIVMEYVDGVTLRDIVHTEGPMTPKRAIEVIADACQALNFSHQNGIIHRDVKPANIMISATNAVKVMDFGIARAIADSGNSVTQTAAVIGTAQYLSPEQARGDSVDARSDVYSLGCVLYEVLTGEPPFTGDSPVSVAYQHVREDPIPPSARHEGLSADLDAVVLKALAKNPENRYQTAAEMRADLVRVHNGEPPEAPKVLTDAERTSLLSSAAGNLSGPRTDPLPRQDLDDTDRDRSIGSVGRWVAVVAVLAVLTVVVTIAINTFGGITRDVQVPDVRGQSSADAIATLQNRGFKIRTLQKPDSTIPPDHVIGTDPAANTSVSAGDEITVNVSTGPEQREIPDVSTLTYAEAVKKLTAAGFGRFKQANSPSTPELVGKVIGTNPPANQTSAITNVVIIIVGSGPATKDIPDVAGQTVDVAQKNLNVYGFTKFSQASVDSPRPAGEVTGTNPPAGTTVPVDSVIELQVSKGNQFVMPDLSGMFWVDAEPRLRALGWTGMLDKGADVDAGGSQHNRVVYQNPPAGTGVNRDGIITLRFGQ
B4: diaminopimelate epimerase (DapF, Rv2726c) of Mycobacterium tuberculosis, M-PFC fusion (enzyme, UniProt P9WP19 1-289)
chain: MIFAKGHGTQNDFVLLPDVDAELVLTAARVAALCDRRKGLGADGVLRVTTAGAAQAVGVLDSLPEGVRVTDWYMDYRNADGSAAQMCGNGVRVFAHYLRASGLEVRDEFVVGSLAGPRPVTCHHVEAAYADVSVDMGKANRLGAGEAVVGGRRFHGLAVDVGNPHLACVDSQLTVDGLAALDVGAPVSFDGAQFPDGVNVEVLTAPVDGAVWMRVHERGVGETRSCGTGTVAAAVAALAAVGSPTGTLTVHVPGGEVVVTVTDATSFLRGPSVLVARGDLADDWWNAMG
B5: MurF synthetase (Rv2157c) of Mycobacterium tuberculosis, M-PFC fusion (enzyme, UniProt P9WJL1 1-510)
chain: T1 sequence
B6: MurD synthetase (Rv2155c) of Mycobacterium tuberculosis, M-PFC fusion (enzyme, UniProt P9WJL5 1-496)
chain: T4 sequence
B7: MurE synthetase (Rv2158c) of Mycobacterium tuberculosis, M-PFC fusion (enzyme, UniProt P9WJL3 1-535)
chain: T2 sequence

These are yes or no findings as the source states them, for the method shown. Binding seen in cells or lysates may run through a third protein. Some binding calls cover weakened binding; strength is not graded here. Sequences can lack the tags named with a protein.

One test deals with T1, MurF synthetase (Rv2157c) of Mycobacterium tuberculosis, M-PFC fusion (Mycobacterium tuberculosis H37Rv). The test can be described thus: split reporter.
Consider B1, for which the binding result is given as “binds”.

As to B2, the binding result is reported as “no binding”.

As to B3, the binding result is listed as “binds”.

For B4, the binding entry is reported as “no binding”.

In the next test the target is T2, MurE synthetase (Rv2158c) of Mycobacterium tuberculosis, M-PFC fusion (Mycobacterium tuberculosis H37Rv). Briefly: split reporter.
B1: the binding entry is recorded as “binds”.

In the case of B5, the binding entry is on record as “no binding”.

In the case of B2, the binding result was “no binding”.

In the case of B3, the binding entry is given as “binds”.

For the molecule B4, the binding entry is “binds”.

The target in another test is T3, MurC synthetase (Rv2152c) of Mycobacterium tuberculosis, M-PFC fusion (Mycobacterium tuberculosis H37Rv). Briefly: split reporter.
As for B6, the binding result is given as “no binding”.

Consider B1, for which the binding entry is on record as “binds”.

Consider B5, for which the binding result was “no binding”.

Take B2: the binding result is “no binding”.

With B7, the binding result is “no binding”.

As for B3, the binding entry is “binds”.

With B4, the binding result is recorded as “no binding”.

The target in the next test is T4, MurD synthetase (Rv2155c) of Mycobacterium tuberculosis, M-PFC fusion (Mycobacterium tuberculosis H37Rv). Briefly: split reporter.
Regarding B1, the binding result is “binds”.

As for B5, the binding entry was “no binding”.

Consider B2, for which the binding entry was “binds”.

Take B7: the binding result is “no binding”.

Turning to B3, the binding result is reported as “binds”.

Take B4: the binding entry is listed as “no binding”.
